Reference: a compilation of properties of binary mixtures (doi:10.1021/ie302343v)
Some of these densities may be calculated back from excess volumes.

Experiment: xn = mol fraction of the nth substance listed
Details: 101 kPa

SMILES: CCCOC(C)=O + CCCCCC(=O)[O-].C[NH2+]CCO
- mass density (293.15 K, x1 = 1): 888.2 kg/m3
- mass density (298.15 K, x1 = 1): 882.6 kg/m3
- mass density (318.15 K, x1 = 1): 860 kg/m3
- mass density (323.15 K, x1 = 1): 854.3 kg/m3
- mass density (328.15 K, x1 = 1): 848.5 kg/m3

SMILES: CCOC(C)=O + CCCCCC(=O)[O-].C[NH2+]CCO
- mass density (288.22 K, x1 = 1): 907 kg/m3
- mass density (293.14 K, x1 = 1): 901 kg/m3
- mass density (298.15 K, x1 = 1): 894.9 kg/m3
- mass density (303.15 K, x1 = 1): 888.8 kg/m3
- mass density (313.16 K, x1 = 1): 876.3 kg/m3
- mass density (318.16 K, x1 = 1): 870.1 kg/m3

SMILES: COC(C)=O + CCCCCC(=O)[O-].C[NH2+]CCO
- mass density (288.15 K, x1 = 1): 939.9 kg/m3
- mass density (293.14 K, x1 = 1): 933.4 kg/m3
- mass density (298.14 K, x1 = 1): 926.8 kg/m3
- mass density (303.14 K, x1 = 1): 920.2 kg/m3
- mass density (308.14 K, x1 = 1): 913.5 kg/m3
- mass density (318.14 K, x1 = 1): 899.9 kg/m3
- mass density (323.15 K, x1 = 1): 893 kg/m3
- mass density (328.15 K, x1 = 1): 886 kg/m3

SMILES: CCCCCC(=O)[O-].C[NH2+]CCO + CCCOC(C)=O
- mass density (288.15 K, x2 = 0): 1001.1 kg/m3
- mass density (288.15 K, x2 = 0.0454): 998.9 kg/m3
- mass density (288.15 K, x2 = 0.1089): 994.9 kg/m3
- mass density (288.15 K, x2 = 0.6005): 957.5 kg/m3
- mass density (288.15 K, x2 = 0.8036): 930.8 kg/m3
- mass density (288.16 K, x2 = 0.304): 982 kg/m3
- mass density (288.16 K, x2 = 0.4022): 976.4 kg/m3
- mass density (288.16 K, x2 = 0.4999): 968.2 kg/m3
- mass density (288.16 K, x2 = 0.8978): 913.7 kg/m3
- mass density (293.14 K, x2 = 0.0454): 995.7 kg/m3
- mass density (293.14 K, x2 = 0.2022): 984.9 kg/m3
- mass density (293.14 K, x2 = 0.8978): 908.5 kg/m3
- mass density (293.15 K, x2 = 0): 997.6 kg/m3
- mass density (293.15 K, x2 = 0.304): 978.1 kg/m3
- mass density (293.15 K, x2 = 0.4999): 964.1 kg/m3
- mass density (293.15 K, x2 = 0.6005): 953.1 kg/m3
- mass density (293.15 K, x2 = 0.7024): 940.2 kg/m3
- mass density (293.15 K, x2 = 0.9489): 898.5 kg/m3
- mass density (298.14 K, x2 = 0.0454): 991.5 kg/m3
- mass density (298.14 K, x2 = 0.4022): 968.5 kg/m3
- mass density (298.15 K, x2 = 0.1089): 987.4 kg/m3
- mass density (298.15 K, x2 = 0.2022): 980.8 kg/m3
- mass density (298.15 K, x2 = 0.6005): 948.8 kg/m3
- mass density (298.15 K, x2 = 0.8036): 921.1 kg/m3
- mass density (298.15 K, x2 = 0.8978): 903.2 kg/m3
- mass density (298.15 K, x2 = 0.9489): 893 kg/m3
- mass density (303.14 K, x2 = 0.1089): 983.6 kg/m3
- mass density (303.14 K, x2 = 0.2022): 976.8 kg/m3
- mass density (303.14 K, x2 = 0.304): 969.9 kg/m3
- mass density (303.14 K, x2 = 0.4022): 964.5 kg/m3
- mass density (303.14 K, x2 = 0.4999): 955.8 kg/m3
- mass density (303.14 K, x2 = 0.7024): 930.9 kg/m3
- mass density (303.15 K, x2 = 0): 990.7 kg/m3
- mass density (303.15 K, x2 = 0.6005): 944.4 kg/m3
- mass density (303.15 K, x2 = 0.8036): 916.1 kg/m3
- mass density (303.15 K, x2 = 0.8978): 897.9 kg/m3
- mass density (303.15 K, x2 = 0.9489): 887.5 kg/m3
- mass density (308.14 K, x2 = 0.0454): 984 kg/m3
- mass density (308.14 K, x2 = 0.1089): 979.9 kg/m3
- mass density (308.14 K, x2 = 0.304): 965.8 kg/m3
- mass density (308.14 K, x2 = 0.4022): 960.5 kg/m3
- mass density (308.14 K, x2 = 0.7024): 926.2 kg/m3
- mass density (308.14 K, x2 = 0.8036): 911.2 kg/m3
- mass density (308.15 K, x2 = 0.4999): 951.6 kg/m3
- mass density (308.15 K, x2 = 0.6005): 940 kg/m3
- mass density (308.15 K, x2 = 0.8978): 892.6 kg/m3
- mass density (308.15 K, x2 = 0.9489): 882 kg/m3
- mass density (313.14 K, x2 = 0): 983.6 kg/m3
- mass density (313.14 K, x2 = 0.0454): 980.2 kg/m3
- mass density (313.14 K, x2 = 0.1089): 974.3 kg/m3
- mass density (313.14 K, x2 = 0.2022): 968.7 kg/m3
- mass density (313.14 K, x2 = 0.304): 961.4 kg/m3
- mass density (313.14 K, x2 = 0.4022): 956.5 kg/m3
- mass density (313.14 K, x2 = 0.4999): 947.4 kg/m3
- mass density (313.14 K, x2 = 0.8978): 887.2 kg/m3
- mass density (313.14 K, x2 = 0.9489): 876.5 kg/m3
- mass density (313.15 K, x2 = 0.6005): 935.5 kg/m3
- mass density (318.14 K, x2 = 0.4999): 943.1 kg/m3
- mass density (318.14 K, x2 = 0.7024): 916.8 kg/m3
- mass density (318.14 K, x2 = 0.9489): 870.9 kg/m3
- mass density (318.15 K, x2 = 0): 980.2 kg/m3
- mass density (318.15 K, x2 = 0.0454): 975.9 kg/m3
- mass density (318.15 K, x2 = 0.8978): 881.8 kg/m3
- mass density (323.14 K, x2 = 0.304): 952.7 kg/m3
- mass density (323.14 K, x2 = 0.4999): 938.8 kg/m3
- mass density (323.14 K, x2 = 0.7024): 912 kg/m3
- mass density (323.14 K, x2 = 0.8036): 896 kg/m3
- mass density (323.14 K, x2 = 0.8978): 876.4 kg/m3
- mass density (323.15 K, x2 = 0): 976.7 kg/m3
- mass density (323.15 K, x2 = 0.1089): 967.1 kg/m3
- mass density (323.15 K, x2 = 0.6005): 926.5 kg/m3
- mass density (328.14 K, x2 = 0.4999): 934.6 kg/m3
- mass density (328.14 K, x2 = 0.7024): 907.2 kg/m3
- mass density (328.14 K, x2 = 0.8978): 871.2 kg/m3
- mass density (328.14 K, x2 = 0.9489): 859.7 kg/m3
- mass density (328.15 K, x2 = 0): 973.1 kg/m3
- mass density (328.15 K, x2 = 0.0454): 967.1 kg/m3
- mass density (328.15 K, x2 = 0.1089): 963.5 kg/m3
- mass density (328.15 K, x2 = 0.2022): 956.7 kg/m3
- mass density (328.15 K, x2 = 0.6005): 922 kg/m3
- mass density (328.15 K, x2 = 0.8036): 890.9 kg/m3
